# The list shows a part of the results.
# Test system: PF3D7_0420300 AP2 domain 1 (GST-tagged)
# Assay: gcPBM binding intensity (ln(normalized median fluorescence intensity)); higher = stronger DNA binding
# Outline: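 Alexa488 anti-GST antibody, scanned at 488 nm, detected GST-tagged P. falciparum DNA-binding domains that had been expressed in E. coli and incubated for 1 h on an Agilent 4 × 180k array. The array carried primer-extended double-stranded 36-bp intergenic genomic probes and negative controls. Binding intensity is the highest Masliner-normalised natural-log median intensity across replicate spots of either orientation of each probe.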
row,Sequence,gcPBM binding intensity (ln)
1,TATCATATATGAAGGTGTACGATTTATTATATAAAT [XGTACX_site7010],9.19
2,ATTTTTGAACGGTACAGTACAGAATTTAATTAACCC [XGTACX_site47],9.47
3,TTATTTAAAATTTTTATGCGTATATATATAGGAACA [CACACA_negctrl_site388],9.12
4,AATTTTTATTTGTACACACATACATATATATTATAT [CACACA_site993],9.67
5,CACAAAATAAATTAAACACACAACATCATAGATGTA [CACACA_site4619],9.62
6,TTTATATATTTCATAATACACACGAAAAAAAAAAAA [CACACA_site2970],9.28
7,TGTCATCATCTTAAATGTACAAAAAGGAAATATAAA [XGTACX_site1529],8.96
8,TTTTTATTTACACTTTTTATTTATATATTATGTACG [CACACA_negctrl_site158],9.42
9,ATATAATCAGCTTCTCTTTTATGCTAAAAAAAAAAA [CACACA_negctrl_site1310],8.73
10,ATAAATAATATAAATACACACTAAAAAAAATATATA [CACACA_site4456],9.7
11,CGTTGGTATTAAAAGGTGCAATGAAATAATATATTA,9.04
12,AAGATCGCATGAAATGAACACACATAAAAAAAATAT [CACACA_site9353],9.55
13,AATGTAACAACTTTTTGTACTTAAGAAATAATAAAT [XGTACX_site3310],9.12
14,TAAAAAATTATATTCACACACATACCCATATATATA [CACACA_site4458],9.73
15,TAAAATTTATAAACTACACACATATATATAGTAATA [CACACA_site3728],9.5
16,TAATTTAGATATATAAAGAATTAAAGTTAACATTCT [CACACA_negctrl_site726],8.96
17,TTTTTCAGATCCTATATAGTATCATATAAATTCCAT [CACACA_negctrl_site56],9.07
18,TTAAGAAAAAAAAAAAGTACACACATATAATATATA [XGTACX_site6268],9.72
19,ATATGACTGTTCATTTGTACGTATAATTATATACGT [XGTACX_site3372],9.33
20,AAATAATATATTCTATATAATAAATTATAAATATAA [GTGCAC_negctrl_site558],8.92
21,ATATATATATATATATATATATATATATATTATATA [XGTACX_negctrl_site48],8.89
22,ATACAACTAATAAGTAGTACAATATACATATATTAT [XGTACX_site7086],9.33
23,TTTTTTTTTTTTTTTTATTTATATATATATATATAT [CACACA_negctrl_site582],9.1

row,Sequence,gcPBM binding intensity (ln)
1,AAAAAAAATGAAAGGTGTACACATACAAACATAGAA [XGTACX_site3517],9.94
2,AAATATTTTTAGAGTGCATGTAATAAAAATATAATG [TGCATGCA_site19],9.26
3,GTGCAAAATATTTTTACACACAAATTTTTACAACAG [CACACA_site3357],9.43
4,AAAAATAAATAAGACACACACAAAAAAAAAAAAAAA [CACACA_site1432],9.54
5,AAATGAGATATAAAATGTACATATTGTAAGTAAACA [XGTACX_site1237],9.33
6,GGGATATATTATTATACACACATATATAAAAGCTTT [CACACA_site2445],9.45
7,TTAATTATATCAGGACGTACTAATATAAATATATAT [XGTACX_site8909],9.04
8,ATTATCTATCGTTTTTGTACTTACACCTTAATACAA [XGTACX_site7337],9.58
9,ACTACGAATGGTAGAGTGCAGTCTGGAGAAAAGTAC [GTGCAC_site9681],9.33
10,CTTTTTTTTTTTTTTGCGCACTGTTTAAAGGGAAAT [GTGCAC_site9815],9.25
11,ATATATATATAATAAAGTACAAATTCTAAATGATAT [XGTACX_site570],9.4
12,TATCTTATGTCTGAAAGTACAAATTTTTTTCTACTT [XGTACX_site2208],9.09
13,AAATATAATAATAATTTAAGAATCTAATATTTTATA [CACACA_negctrl_site831],8.88
14,TACTATATCGATACCAGTACAGATTTATAAATAATA [XGTACX_site7491],9.09
15,TTATAAAAAAAAATAACACACAGACATAAGAATAAA [CACACA_site9383],9.95
16,TATATTAAGTATAAGACACACATATAGTAATAGAAA [CACACA_site5176],9.5
17,GGTATACATATTAAATGTACATATTTTAACAATAAG [XGTACX_site4868],9.05
18,ATATAACTTTTCTTAACACACAAAAAACAAAAATAA [CACACA_site2380],9.44
19,AAGTGTCAAAGTTACACACACAAACTTGTCATTTTT [CACACA_site837],9.75
20,ATATAATTATATAAATGTACTCATTCGTTATTTTGC [XGTACX_site6132],9.2
21,CAAAGATATATAAACACACAAATATAACATATATAC [CACACA_site7395],9.69
22,TATGAATATCTATACACACACATATATATACTCACT [CACACA_site1597],9.9
23,TATATTATTATATATTGTACTTTTTATATTTGCATT [XGTACX_site2978],9.51

row,Sequence,gcPBM binding intensity (ln)
1,TACACTTGTAATTGCGTGCACGAAGGATATATATAT,9.3
2,TATGTATATTTTTTTGTGCACATATATATATATATA,9.37
3,ATTTTTTTTTTAAAATGTACATGAGAAATTGTATAT [XGTACX_site425],9.04
4,TTTCTTATATAAGTGTACTAAAATATATATATGCAA [GTGCAC_negctrl_site546],9
5,TAAAAAAATAAATATACACACATATATAAATATGTA [CACACA_site6641],9.3
6,TAACATAATATAGACACACACATGTACATATGCCAA [CACACA_site1842],9.76
7,TATATTATTAATTAAGCACACATTATTTTTATAATA [CACACA_site3982],9.06
8,TCGACAAATGTATATACACACATTTGTAACATAAAT [CACACA_site560],9.39
9,TATAAAGGTGAAATTTGTACATAGTCATTTTTTAAT [XGTACX_site4811],9.05
10,TGACGAAAAAAAAGGGTGCTTAGTATAACTTTAAAG,9.08
11,TTCTTTTTTAAACACACACACACAAGAAAATATATA [CACACA_site5680],10.1
12,TTTTTTTTAATTGTGATACGTATATTATTTTTTGAT [TGCATGCA_negctrl_site318],9.3
13,ATTTTTAATATTATTACACACACTAATAAAAAAAAA [CACACA_site8265],9.51
14,ATATGTAAAGAAAAGTAAACACTAATTTTAAACAAT [CACACA_negctrl_site11],9.42
15,TATATATATGTGCAGTGTACTTTTTTTTTCTGTAAG [XGTACX_site3424],9.35
16,GAGAAGACATTACACAGTACCCAGGAAATCTACGGA [XGTACX_site1993],9.44
17,ATATATATATATATATGTACTTAATATTTCTTATTT [XGTACX_site6206],9.21
18,ATTAAAACCAATTAAAAAAAATTTATAATGGAAGCA [TGCATGCA_negctrl_site273],9.22
19,TATTATTGTTGTTCATGTACACACTATAATAAAAGC [XGTACX_site8957],9.31
20,AATGACTAAATTTAAACACACAAGGGGAGTTTACTT [CACACA_site918],9.4
21,GAGATAAAATAAAACACACACATATATATATATAAT [CACACA_site5246],9.95
22,TTGTATTTTTAAATGACACACACATATATATATATA [CACACA_site8481],9.63
23,AAGTTATAAAAATAAAGTACAAAGTAGCTATTTTTT [XGTACX_site3144],9.21

row,Sequence,gcPBM binding intensity (ln)
1,ATAAATATAAAAAAATGTACATATAGTAATACATAC [XGTACX_site508],9.42
2,GACTTTTCATTTATAGTGCAAGTTTTTTTTTTTTTT [GTGCAC_site9698],9.54
3,ATAAGTATAAGAATCAGTACACAGTTTCTACATACT [XGTACX_site5834],9.26
4,GAAATAAAAAGAAATGCATGTAATTTTTTTTTTTTT [TGCATGCA_site928],9.11
5,TATATATCATTTAAAACACACAAAAAAAAAAGTTAT [CACACA_site6191],9.57
6,GTTATTTATAGACACACACACATGCATGCACATATA [CACACA_site6204],10.1
7,CATATGTTCATCATAGCACACATATATAAATTACAA [CACACA_site9177],9.28
8,TATAGGTATGTATGTACACACAAAAAATGGAATATA [CACACA_site7704],9.83
9,TATATATATATATATTGTACATAATGTATATATGTT [XGTACX_site3448],9.23
10,CATATATATTTGTTCACACACACACCCAAAAAAAAA [CACACA_site2476],9.99
11,ATATATATATATATTTGTACATATATACATAAAATT [XGTACX_site359],9.16
12,CACACCCACAGACACACACACACATATATATATATA [CACACA_site363],10.2
13,TTTAAAATGGGACTTTGAAAAAAAAAAAAAAAAACA [TGCATGCA_negctrl_site111],9.09
14,GAAAAAGTTATAAATTGTACTAAATATTAAATATTG [XGTACX_site7890],9
15,AAAAAAAAAAAAAGGTGTACATGCAAAATAAATTCT [XGTACX_site4592],9.63
16,AAATAAATAAGAAACGCATGCATATATAATATATAA [TGCATGCA_site326],9.36
17,TAGGCGTTTAATAAAAGTACCCACACATATATTATT [XGTACX_site1932],9.33
18,TTTATTATCGTTCTCATACACACAAAATATACATAC [CACACA_site2642],9.65
19,AAATATATATGTGGGGGTACTAATAAAAAAACCCCT [XGTACX_site2657],9.31
20,AATTCAAATATAAATACACACACATAGCTACAAAAT [CACACA_site9386],10

# From the supplement of paper PMC11417369
